# Source: PubChem BioAssay AID2100 (National Center for Advancing Translational Sciences (NCATS), 2009)
# About 1,200 (0.4%) of roughly 300,000 compounds were called active. The shares of active, inactive and inconclusive entries below differ from those in the screen. Calls follow the shape of the dose curve; as a rule, active = well fitted inhibition curve with a large enough effect; inconclusive = small, poorly fitted or top-dose-only effect, or another doubt; inactive = no such curve, though single readings can be large or run the other way. Potencies beside an inconclusive call are fits to weak or partial responses and may not hold up.
# Target: Lysosomal alpha-glucosidase (Homo sapiens) (UniProt P10253)
# Test: qHTS Assay for Inhibitors and Activators of Human alpha-Glucosidase Cleavage of Glycogen;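 as to activity change, negative = inhibition: 0% = full enzyme reaction and -100% = no-enzyme basal signal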
# Conditions: recombinant GAA, glycogen substrate, Amplex Red glucose oxidase fluorescence; activity change, negative = inhibition: at 76.4 µM (top of the series) unless noted
# Procedure, shortened: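 Natural-substrate format: glycogen cleavage by 4 nM human enzyme, glucose read by Amplex Red coupling (Ex 573, Em 610 nm). Normalized to enzyme and no-enzyme controls.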
# Potency is read from the fitted curve at half-maximal effect.
SMILES,Potency,"activity change, negative = inhibition"
CCOC(=O)c1c(C)sc(-c2c(-c3cc(C)ccc3C)[nH]c3c2c(=O)[nH]c(=O)n3C)c1O,"inconclusive: 35.5 µM [inhibitor, single point]",
COc1cc(C(=O)Nc2ccc(-c3cc(C(F)(F)F)nn3-c3ccccc3)cc2)cc(OC)c1OC,,inactive: -19.5% [at 76.3 µM]
CCOc1ccc(NC(=O)C2=C(C)NC(=S)NC2c2ccc(O)c(OC)c2)cc1 (centres undefined),"inconclusive: 25.1 µM [inhibitor, partial curve]",
C/C(=N\NC(=O)c1ccc(N/N=C(\C)c2ccncc2)cc1)c1ccncc1,"inconclusive: 12.6 µM [inhibitor, partial curve]",
CCN(CC)CCn1c2ccccc2c2nc3ccccc3nc21,"inconclusive: 28.2 µM [activator, partial curve]",
NC(=O)Nc1ccc(Nc2ccccc2)cc1,"inconclusive: 44.7 µM [inhibitor, single point]",
CCCc1[nH]nc2c1C(c1cc(OC)cc(OC)c1)C(C#N)=C(N)O2 (centres undefined),,inactive: -21.5%
CN(Cc1cccs1)c1nc(-c2cccnc2)nc2ccccc12,,inactive: -5.81%
Nc1ccc(Nc2ccccc2)c(S(=O)(=O)O)c1,active: 14.1 µM,
CN1CCc2nc(SCC(=O)Nc3ccc(OC(F)(F)F)cc3)c(C#N)c(-c3cccs3)c2C1,,inactive: 0.974%
Cc1oc(-c2ccc(Cl)cc2)nc1CN1CCCC(C(=O)NCCCN2CCCC2=O)C1 (centres undefined),"inconclusive: 15.8 µM [inhibitor, partial curve, poor fit]",
COCCNc1ncnc2c1cnn2Cc1ccccc1Cl,,inactive: 0.0667%
COc1ccc(-c2nc3cnccn3c2Nc2ccc3c(c2)OCO3)cc1,"inconclusive: 20 µM [inhibitor, partial curve]",
CCCCOc1ccc(C2=NC(c3ccccc3)=Nc3ccc(OC)cc3N2)cc1,"inconclusive: 50.1 µM [inhibitor, partial curve, poor fit]",
Cc1ccccc1CS(=O)(=O)CCC(=O)NCCCN1CCOCC1,"inconclusive: 39.8 µM [inhibitor, single point]",
Cc1ccc(C(=O)c2coc3c2C(=O)C(=O)c2ccccc2-3)cc1,,inactive: 3.71%
CCOC(=O)c1c(C)sc(-c2c(-c3ccc(OC)c(F)c3)[nH]c3c2c(=O)[nH]c(=O)n3C)c1O,"inconclusive: 10 µM [inhibitor, full curve]",
CCOC(=O)C1(CC)NC(c2ccc(N(C)C)cc2)C2C(=O)N(C)C(=O)C21 (centres undefined),"inconclusive: 31.6 µM [inhibitor, single point]",
CCOc1ccc(CNC(=O)CCCn2c(=O)c3cccn3c3ccc(F)cc32)cc1,,inactive: 13.4% [at 76.3 µM]
Cc1cccc(OCC(=O)Nc2ccc3nc(Nc4cccc(Cl)c4)cc(C)c3c2)c1,,inactive: -10.5% [at 76.3 µM]
CC(C)CN1CCNC(=O)C1CC(=O)NCCCN1CCCc2ccccc21 (centres undefined),"inconclusive: 2.51 µM [inhibitor, partial curve]",
CCOC(=O)c1c(-c2ccccc2)oc2ccc(NS(=O)(=O)c3ccc(C(C)C)cc3)cc12,,inactive: -16.8% [at 76.3 µM]
Cc1nnc(SCC(=O)Nc2ccc3c(c2)OCO3)[nH]c1=O,"inconclusive: 31.6 µM [inhibitor, single point]",

SMILES,Potency,"activity change, negative = inhibition"
Fc1ccc(NC(=S)NC2CC3CCCC(C2)N3Cc2cccs2)cc1 (centres undefined),,inactive: -4.72%
O=C1CC(NNc2ccccc2)C(=O)N1c1ccccc1 (centres undefined),"inconclusive: 50.1 µM [activator, single point]",
COc1ccc(CNC(=O)CS(=O)Cc2nc(-c3ccccc3C)oc2C)cc1 (centres undefined),"inconclusive: 10 µM [inhibitor, full curve, poor fit]",
O=C(O)CCCCCN1C(=O)CSC1=S,"inconclusive: 28 µM [inhibitor, single point]",
C/C(=N\N(Cc1ccccc1)c1ccccc1)c1ccncc1,"inconclusive: 31.6 µM [inhibitor, single point]",
CN1CC=C2C(C#N)=C(N)C(C#N)(C#N)C(CCc3ccccc3)C2C1 (centres undefined),"inconclusive: 25.1 µM [activator, partial curve]",
COc1cc(/C=N/NC(=O)c2ccc3c(c2)OCO3)ccc1O,"inconclusive: 50.1 µM [inhibitor, single point]",
COc1ccc(N2CCN(S(=O)(=O)c3ccc4c(c3)CC(=O)N4)CC2)cc1,active: 59.8 µM,
COC(=O)c1ccccc1NC(=S)N1CCN(c2ccc(OC)cc2)CC1,"inconclusive: 28.2 µM [inhibitor, partial curve]",
O=c1[nH]c2ccc(S(=O)(=O)Nc3ccccc3O)cc2[nH]1,"inconclusive: 11.2 µM [inhibitor, single point]",
CCc1c(C(=O)N/N=C/c2sccc2C)nnn1-c1nonc1N,"inconclusive: 35.5 µM [inhibitor, single point]",
O=C(O)c1cc(N/N=C2/CC(c3ccccc3)Oc3ccccc32)ccc1Cl (centres undefined),"inconclusive: 39.8 µM [inhibitor, partial curve]",
CC1CCN(C2=C(NS(=O)(=O)c3ccccc3)C(=O)c3ccccc3C2=O)CC1,"inconclusive: 10 µM [inhibitor, full curve, poor fit]",
CN(c1ccc(OCC(=O)OCC(=O)Nc2cccc([N+](=O)[O-])c2)cc1)S(=O)(=O)c1ccc(F)cc1,"inconclusive: 4.43 µM [inhibitor, full curve]",
Nc1ccc(C(=O)O)c(O)c1,"inconclusive: 28.2 µM [inhibitor, single point]",
CS(=O)(=O)N1CCc2cc(-c3csc(NCC4CCCO4)n3)ccc21 (centres undefined),"inconclusive: 24.9 µM [inhibitor, partial curve]",
Nc1[nH]nc2nc3ccccc3cc12,"inconclusive: 6.31 µM [inhibitor, single point]",
CCOc1cc(/C=N/NC(=O)CCn2nnc3ccccc32)ccc1O,"inconclusive: 28.2 µM [inhibitor, partial curve]",
COc1ccc(-c2nn(-c3ccccc3)cc2/C=N/N2C(=O)CSC2=S)cc1,"inconclusive: 31.6 µM [inhibitor, partial curve]",
O=C(c1cc(S(=O)(=O)N2CCOCC2)ccc1F)N1CCN(Cc2ccccc2)CC1,,inactive: -2.45%
Cc1ccc2c(c1)N(CCCC(=O)NCc1cccc(F)c1)C(=O)CO2,active: 44.7 µM,
Oc1cccc(NC(=S)N=Nc2c(O)[nH]c3ccc(Br)cc23)c1,,inactive: -24%
C/C(CC(=O)N(C(C)C)C(C)C)=N\NC(=O)COc1ccc(Cl)cc1Cl,"inconclusive: 8.84 µM [inhibitor, single point]",

SMILES,Potency,"activity change, negative = inhibition"
COc1ccccc1NCC(=O)N/N=C/c1cccnc1,"inconclusive: 35.5 µM [activator, partial curve]",
CCOC(=O)c1ccc(NC(=S)NNC(=O)COC)cc1,"inconclusive: 15.7 µM [inhibitor, partial curve]",
COCCCNC(=O)c1ccc2c(c1)NC(=O)C(C(C)C)N2 (centres undefined),"inconclusive: 8.91 µM [inhibitor, partial curve]",
CN1C(=S)SC(C)(C)C1(C)NO (centres undefined),"inconclusive: 28 µM [inhibitor, partial curve]",
CC(C)(C)c1cc(CCC(=O)NNC(=S)NC(=O)c2ccccc2)cc(C(C)(C)C)c1O,"inconclusive: 44.7 µM [inhibitor, single point]",
O=S1(=O)N=C(Oc2cccc3ccccc23)c2ccccc21,active: 25.1 µM,
CN(C)c1ccc(-c2c(-c3ccc4c(c3)OCO4)noc2-c2ccsc2)cn1,"inconclusive: 39.8 µM [inhibitor, partial curve]",
CCN1CCc2c(sc(NC(=S)NC(=O)c3ccc(Cl)cc3)c2C(N)=O)C1,"inconclusive: 50.1 µM [inhibitor, single point]",
Cc1ccc2nc3c(c(Nc4ccc(O)cc4)c2c1)CCC3,active: 12.6 µM,
Oc1ccc(/C=N\Nc2cc(N3CCOCC3)nc(N3CCOCC3)n2)c(O)c1,active: 10 µM,
COCCCNC(=S)N/N=C/c1cccc(OC)c1O,"inconclusive: 12.6 µM [inhibitor, partial curve, poor fit]",
COCCNC(=S)N/N=C/c1ccccc1C(=O)O,"inconclusive: 17.6 µM [inhibitor, partial curve]",
COc1cc(/C=N/Nc2ccccn2)ccc1OCC(C)C,"inconclusive: 39.5 µM [inhibitor, single point]",
COc1ccc(C(=O)c2ccc(OC)c3cccc(O)c23)cc1OC,"inconclusive: 25.1 µM [inhibitor, partial curve]",
COc1ccc(-c2nc(C#N)c(NCc3ccc(F)cc3)o2)cc1OC,"inconclusive: 22.2 µM [inhibitor, single point]",
CCOc1cc(C2Sc3ccccc3NC3=C2C(=O)c2ccccc23)ccc1O (centres undefined),"inconclusive: 25.1 µM [inhibitor, single point]",
CCn1c(=O)n(CC)c2cc(N)ccc21,"inconclusive: 24.9 µM [inhibitor, single point]",
CC12CN3CC(C)(CN(C1)C3c1c[nH]c3ccccc13)C2=O (centres undefined),,inactive: -7.87%
CCOC(=O)c1cnc2ccc(Cl)cc2c1Nc1ccc(OCC)cc1,,inactive: -7.8% [at 76.3 µM]
Cc1cccc(C)c1NC(=O)CCS(=O)(=O)c1cccc2nonc12,inactive,
CN1CN(C)c2cccc3cccc1c23,"inconclusive: 50.1 µM [inhibitor, single point]",
Cc1cc(C)nc(N/N=C/c2c[nH]c3ccccc23)n1,"inconclusive: 35.5 µM [inhibitor, partial curve]",
COc1ccc(C2C(C#N)=C(N)Oc3c2c(C)nn3-c2ccccc2)cc1Cn1nc(C)c([N+](=O)[O-])c1C (centres undefined),"inconclusive: 31.4 µM [inhibitor, single point]",
